± gives the standard deviation of the averaged measurements. In all, about 33,000 sequences were measured (“E-score (dimensionless, -0.5 to 0.5)”: median about -0.049, highest 2% from about 0.37 on). This is one part of the list.
What follows are sequences tested on T1, PmTbr T-box DNA-binding domain (GST fusion) (assay: PBM E-score of 8-mer (E-score (dimensionless, -0.5 to 0.5)); Tbr is Tbrain of the sea star Patiria miniata (Pm) or the sea urchin Strongylocentrotus purpuratus (Sp); higher = stronger binding preference; most listed sequences are background and not binding sites). Settings: the construct has about 5 more residues each side.
T1 sequence: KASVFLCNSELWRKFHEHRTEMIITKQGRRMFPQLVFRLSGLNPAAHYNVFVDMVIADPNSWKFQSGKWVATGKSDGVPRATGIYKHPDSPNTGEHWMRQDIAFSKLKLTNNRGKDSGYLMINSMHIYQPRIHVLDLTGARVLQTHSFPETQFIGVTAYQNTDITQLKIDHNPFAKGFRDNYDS
Procedure: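 Universal protein-binding microarray (Agilent AMADID 016060, 60-bp probes with a 35-bp variable region) incubated with 200 nM GST-fused Patiria miniata Tbr T-box DNA-binding domain (residues 272-466) in PBS pH 7.5. Scored for every ungapped 8-mer (given with its reverse complement) by the Universal PBM Analysis Suite as E-score (modified Wilcoxon-Mann-Whitney enrichment, range -0.5 to 0.5; >0.45 counts as bound) and Z-score of median probe intensity. Two replicate arrays (datasets 1 and 2).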
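Further: 200 nM protein in PBS on universal arrays averaged over duplicate arrays.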

| Sequence | PBM E-score of 8-mer |
| --- | --- |
| ATTTCCAA | -0.0463 ± 0.041 |
| AGCTTTAT | -0.0227 ± 0.065 |
| AGCTCACA | 0.243 ± 0.027 |
| CACTAGAC | 0.128 ± 0.05 |
| ACTGCTAA | 0.253 ± 0.03 |
| ATAGTGCA | 0.037 ± 0.00069 |
| CCAACCGA | 0.0297 ± 0.03 |
| AGGCCCCA | -0.00282 ± 0.088 |
| GATGCAGA | -0.142 ± 0.0028 |
| CCTGAACG | -0.00789 ± 0.012 |
| CTAACGAG | 0.152 ± 0.013 |
| ACACACAA | 0.0649 ± 0.066 |
| CGAGGACC | -0.0961 ± 0.05 |
| AGCTGAGG | 0.0719 ± 0.034 |
| CCGGTTCG | -0.102 ± 0.022 |
| CGAGCGCC | -0.04 ± 0.053 |
| ACCCCTAA | -0.0107 ± 0.012 |
| ACAAACGT | 0.00304 ± 0.087 |
| ACAAAGGT | 0.185 ± 0.029 |
| GTTAAAAC | 0.242 ± 0.032 |
| TTCTAAAA | -0.224 ± 0.06 |
| CGCGTTAC | 0.182 ± 0.047 |
| GACCTAGA | -0.233 ± 0.0031 |
| CATAACGG | -0.0545 ± 0.0046 |
| CGTCCTAA | -0.161 ± 0.043 |

| Sequence | PBM E-score of 8-mer |
| --- | --- |
| ATAATGCC | -0.174 ± 0.081 |
| TACTCTGA | -0.296 ± 0.047 |
| CATTTCCC | -0.12 ± 0.03 |
| GCGTGCAC | -0.11 ± 0.0083 |
| ATGTTGGA | -0.0683 ± 0.0083 |
| ATGTCTAC | -0.197 ± 0.004 |
| AAAAAACT | -0.0997 ± 0.07 |
| GATACATC | 0.109 ± 0.043 |
| GGTTTTCA | -0.0123 ± 0.066 |
| GCTTTCCA | -0.136 ± 0.0065 |
| AGGGGAAC | -0.164 ± 0.058 |
| ACTTTAGC | 0.18 ± 0.053 |
| AAGATGCC | -0.11 ± 0.016 |
| CTCCAAAG | 0.00306 ± 0.0076 |
| AGGTATGG | -0.156 ± 0.004 |
| CCTACTCG | -0.0832 ± 0.058 |
| CATAAACC | -0.0906 ± 0.092 |
| AGGCCGAG | 0.0138 ± 0.058 |
| TGGCTGAA | -0.23 ± 0.083 |
| ATGTCGGG | -0.0272 ± 0.082 |
| CAGATCGA | -0.0946 ± 0.032 |
| AACAACTG | 0.236 ± 0.0091 |
| GGAAATGA | -0.0842 ± 0.13 |
| GATAAGGA | -0.0732 ± 0.091 |
| AACACTAA | 0.22 ± 0.049 |

| Sequence | PBM E-score of 8-mer |
| --- | --- |
| CGCTAGCA | 0.213 ± 0.054 |
| AATCACGT | 0.132 ± 0.026 |
| GCACGAAC | 0.0634 ± 0.087 |
| AGAGCACG | -0.122 ± 0.054 |
| CCATCTAA | -0.101 ± 0.031 |
| GGAATCAC | 0.0477 ± 0.0062 |
| AAATTAAG | -0.352 ± 0.028 |
| AGTTATTA | 0.21 ± 0.036 |
| CTATAACC | 0.0577 ± 0.023 |
| CCATGCGG | -0.187 ± 0.044 |
| CTTCCTGC | -0.137 ± 0.02 |
| CAGTGCTA | 0.2111 ± 0.00047 |
| GTCATGCA | -0.133 ± 0.0069 |
| CCCCCACG | -0.094 ± 0.0037 |
| ACATCGGA | 0.0509 ± 0.11 |
| AGCCTGTG | 0.00387 ± 0.024 |
| CACTGCCG | -0.0289 ± 0.081 |
| GACTTTAA | -0.305 ± 0.055 |
| ATCTCTAC | -0.199 ± 0.035 |
| AGACAGGG | -0.0618 ± 0.038 |
| ACAACTTA | 0.217 ± 0.074 |
| ACCTTGTG | 0.221 ± 0.031 |
| ATAACAAA | -0.00818 ± 0.13 |
| GTCCGTTA | -0.12 ± 0.098 |
| CGAATAGC | 0.0684 ± 0.011 |

| Sequence | PBM E-score of 8-mer |
| --- | --- |
| AAAATACA | -0.0985 ± 0.1 |
| GAAGGGCA | -0.06 ± 0.0073 |
| CAGTCACC | 0.1704 ± 0.0011 |
| ACGGGTCT | 0.145 ± 0.0046 |
| AGGATTTC | -0.105 ± 0.029 |
| AAGTAGCA | 0.283 ± 0.015 |
| CCTGTCAG | 0.224 ± 0.013 |
| ACTGCGCC | 0.0401 ± 0.084 |
| ATGGAACC | -0.241 ± 0.0026 |
| GGCGGACA | -0.0729 ± 0.086 |
| ACTCCCCG | -0.0322 ± 0.051 |
| AATTGCCG | 0.131 ± 0.0045 |
| GCCAGTTA | 0.0465 ± 0.035 |
| CGACCCTA | -0.0857 ± 0.014 |
| CTTAAATA | -0.12 ± 0.12 |
| AGTCGTAT | -0.144 ± 0.032 |
| GGTGACCA | 0.0575 ± 0.069 |
| GGCTTGGA | -0.269 ± 0.017 |
| CCGATGCG | -0.137 ± 0.032 |
| CGGTACGA | -0.129 ± 0.083 |
| ACCCATTA | 0.0586 ± 0.03 |
| CAAGTGTG | 0.433 ± 0.0066 |
| AAGGGGCT | -0.298 ± 0.033 |
| GTGCTTGA | 0.00432 ± 0.026 |
| CGAACACG | 0.213 ± 0.039 |

| Sequence | PBM E-score of 8-mer |
| --- | --- |
| CCCACGCG | 0.118 ± 0.043 |
| GCGTATCC | -0.0938 ± 0.033 |
| CGAAGTCG | 0.138 ± 0.0022 |
| ACCATAGG | 0.16 ± 0.012 |
| AATAAAAA | -0.187 ± 0.012 |
| GAGTTAGA | -0.215 ± 0.018 |
| GATGGTAA | -0.154 ± 0.025 |
| GATTATCA | 0.106 ± 0.005 |
| AGTTGGCG | 0.229 ± 0.039 |
| GACAGAGA | -0.0089 ± 0.054 |
| CGACGTCG | 0.0448 ± 0.045 |
| GGTAATAA | -0.204 ± 0.056 |
| AGAGTCAA | -0.178 ± 0.012 |
| AGCAATAT | 0.0515 ± 0.092 |
| CTAATTAC | -0.117 ± 0.033 |
| CGAAGCCG | 0.155 ± 0.06 |
| ACATGCTA | 0.196 ± 0.0051 |
| AGGTAGCA | 0.127 ± 0.033 |
| CATGGGAA | -0.0941 ± 0.0043 |
| ATGTACGG | -0.151 ± 0.073 |
| CTTGTGGA | 0.139 ± 0.026 |
| CGCGTTTA | 0.0976 ± 0.027 |
| AAGGAGAC | -0.107 ± 0.022 |
| ACGGCCGC | 0.0697 ± 0.036 |
| GGAAGGGA | -0.272 ± 0.032 |

| Sequence | PBM E-score of 8-mer |
| --- | --- |
| AGAAGGGA | -0.301 ± 0.082 |
| GGAGGTTA | -0.0747 ± 0.017 |
| AAACAACT | 0.0442 ± 0.078 |
| GCCGAGCA | 0.0159 ± 0.0034 |
| GTATATCA | 0.0135 ± 0.0068 |
| AAAGAGGA | -0.0356 ± 0.0083 |
| CGGTCAGC | -0.22 ± 0.1 |
| AAATTAGC | 0.24 ± 0.01 |
| CACCTCCC | 0.423 ± 0.0044 |
| TTCTGAAA | -0.273 ± 0.058 |
| CATTTGCC | -0.123 ± 0.021 |
| ATACTGTA | 0.00607 ± 0.042 |
| GACGTCTA | -0.0955 ± 0.025 |
| ACAACCGG | -0.122 ± 0.0046 |
| CGAGTACC | -0.0996 ± 0.0095 |
| AGGCGCAC | 0.0455 ± 0.023 |
| AATGATAC | -0.0724 ± 0.057 |
| CACTTCAA | 0.248 ± 0.012 |
| CACTGATC | -0.0239 ± 0.058 |
| CGCCCTTA | 0.0943 ± 0.022 |
| CCTGAAAC | -0.0626 ± 0.0012 |
| CTTTACCC | -0.183 ± 0.015 |
| CATATTCA | 0.0904 ± 0.063 |
| AGGGTGAA | 0.143 ± 0.012 |
| CGGCATGA | -0.0778 ± 0.05 |

| Sequence | PBM E-score of 8-mer |
| --- | --- |
| CTGCGTGC | 0.00062 ± 0.07 |
| CCCTGCTC | -0.215 ± 0.0043 |
| GGAGACCA | -0.146 ± 0.073 |
| CTCTAGGC | 0.0553 ± 0.035 |
| CCGGACGG | -0.207 ± 0.016 |
| ATACGTGG | -0.136 ± 0.072 |
| CGTAGAAG | -0.351 ± 0.059 |
| GGTTTGAC | 0.0502 ± 0.028 |
| TAAATCCA | -0.117 ± 0.13 |
| ATATCTGG | -0.218 ± 0.0023 |
| ACTACGAC | -0.128 ± 0.038 |
| CTTCATTC | -0.243 ± 0.1 |
| CTCCGCAG | -0.0327 ± 0.049 |
| GCATATAA | -0.136 ± 0.041 |
| CTCGCTCA | -0.069 ± 0.031 |
| CACATTGC | 0.257 ± 0.038 |
| CTGCCTTA | -0.0599 ± 0.015 |
| ATCGGATA | -0.0872 ± 0.069 |
| CGTGATCC | 0.0775 ± 0.019 |
| CACCCTAC | 0.183 ± 0.076 |
| CTGGCGCC | 0.258 ± 0.053 |
| CGGGGAGA | -0.109 ± 0.015 |
